According to ChEMBL document CHEMBL5214994, “Discovery of Proline-Based p300/CBP Inhibitors Using DNA-Encoded Library Technology in Combination with High-Throughput Screening” (J Med Chem, 2022):

Assays:
[1] = biological target: T1, CREB-binding protein/Histone acetyltransferase p300 (Homo sapiens, UniProt Q09472+Q92793); assay: Inhibition of CBP/p300 in human COLO 320HSR cells assessed as reduction of C-myc levels measured after 24 hrs by HTRF assay; assay type: cell-based
[2] = Lipophilicity, log D of the compound at pH 7.4 by chromatographic method; assay type: physicochemical; settings: buffer
[3] = Cmax in male Wistar Han rat at 0.53 mg/kg, iv measured after 24 hrs by LC-MS/MS analysis; assay type: ADME, organism-based; design: time 24 hrs, dose 0.53 mg/kg, route iv; settings: in vivo
[4] = AUC (0 to infinity) in male Wistar Han rat at 0.53 mg/kg, iv measured after 24 hrs by LC-MS/MS analysis; assay type: ADME, organism-based; design: dose 0.53 mg/kg, time 24 hrs, route iv; settings: in vivo
[5] = Clearance in male Wistar Han rat at 0.53 mg/kg, iv measured after 24 hrs by LC-MS/MS analysis; assay type: ADME, organism-based; settings: in vivo
[6] = Volume of distribution at steady state in male Wistar Han rat at 0.53 mg/kg, iv measured after 24 hrs by LC-MS/MS analysis; assay type: ADME, organism-based; settings: in vivo, read-out: Vdss
[7] = Half-life in male Wistar Han rat at 0.53 mg/kg, iv measured after 24 hrs by LC-MS/MS analysis; assay type: ADME, organism-based; settings: in vivo
[8] = Mean residence time in male Wistar Han rat at 0.53 mg/kg, iv measured after 24 hrs by LC-MS/MS analysis; assay type: ADME, organism-based; settings: in vivo
[9] = Cmax in male Wistar Han rat at 0.6 mg/kg, iv measured after 24 hrs by LC-MS/MS analysis; assay type: ADME, organism-based; design: time 24 hrs, dose 0.6 mg/kg, route iv; settings: in vivo
[10] = AUC (0 to infinity) in male Wistar Han rat at 0.6 mg/kg, iv measured after 24 hrs by LC-MS/MS analysis; assay type: ADME, organism-based; design: time 24 hrs, dose 0.6 mg/kg, route iv; settings: in vivo
[11] = Clearance in male Wistar Han rat at 0.6 mg/kg, iv measured after 24 hrs by LC-MS/MS analysis; assay type: ADME, organism-based; settings: in vivo
[12] = Volume of distribution at steady state in male Wistar Han rat at 0.6 mg/kg, iv measured after 24 hrs by LC-MS/MS analysis; assay type: ADME, organism-based; settings: in vivo, read-out: Vdss
[13] = Half-life in male Wistar Han rat at 0.6 mg/kg, iv measured after 24 hrs by LC-MS/MS analysis; assay type: ADME, organism-based; settings: in vivo
[14] = Mean residence time in male Wistar Han rat at 0.6 mg/kg, iv measured after 24 hrs by LC-MS/MS analysis; assay type: ADME, organism-based; settings: in vivo
[15] = Half-life in male Wistar Han rat at 0.5 mg/kg, iv or 1 mg/kg, po measured after 24 hrs by LC-MS/MS analysis; assay type: ADME, organism-based; settings: in vivo
[16] = Stability in male Wistar Han rat plasma assessed as compound remaining at 1 uM measured up to 4 hrs measured by LC-MS/MS analysis; assay type: ADME, cell-free; settings: read-out: Stability
[17] = Cmax in male Wistar Han rat at 0.54 mg/kg, iv measured after 24 hrs by LC-MS/MS analysis; assay type: ADME, organism-based; design: time 24 hrs, dose 0.54 mg/kg, route iv; settings: in vivo
[18] = AUC (0 to infinity) in male Wistar Han rat at 0.54 mg/kg, iv measured after 24 hrs by LC-MS/MS analysis; assay type: ADME, organism-based; design: time 24 hrs, dose 0.54 mg/kg, route iv; settings: in vivo
[19] = Clearance in male Wistar Han rat at 0.54 mg/kg, iv measured after 24 hrs by LC-MS/MS analysis; assay type: ADME, organism-based; settings: in vivo
[20] = Volume of distribution at steady state in male Wistar Han rat at 0.54 mg/kg, iv measured after 24 hrs by LC-MS/MS analysis; assay type: ADME, organism-based; settings: in vivo, read-out: Vdss
[21] = Half-life in male Wistar Han rat at 0.54 mg/kg, iv measured after 24 hrs by LC-MS/MS analysis; assay type: ADME, organism-based; settings: in vivo
[22] = Mean residence time in male Wistar Han rat at 0.54 mg/kg, iv measured after 24 hrs by LC-MS/MS analysis; assay type: ADME, organism-based; settings: in vivo
[23] = biological target: Histone acetyltransferase p300 (Homo sapiens, UniProt Q09472); assay: Inhibition of p300 (unknown origin) using Histone H3 substrate at 1 uM relative to control
[24] = biological target: CREB-binding protein (Homo sapiens) (UniProt Q92793); assay: Inhibition of CBP (unknown origin) using Histone H3 substrate at 1 uM relative to control
[25] = biological target: T1, CREB-binding protein/Histone acetyltransferase p300; assay: Inhibition of CBP/p300 in human COLO 320HSR cells assessed as decrease in H3K18 acetylation at 0.3 to 1000 nM measured by western blot analysis; assay type: cell-based; settings: dose 0.3-1000 nM
[26] = biological target: T1, CREB-binding protein/Histone acetyltransferase p300; assay: Inhibition of CBP/p300 in human COLO 320HSR cells assessed as decrease in H3K27 acetylation at 0.3 to 1000 nM measured by western blot analysis; assay type: cell-based; settings: dose 0.3-1000 nM

Chain of UniProt Q92793 (Q92793 whole entry, looked up): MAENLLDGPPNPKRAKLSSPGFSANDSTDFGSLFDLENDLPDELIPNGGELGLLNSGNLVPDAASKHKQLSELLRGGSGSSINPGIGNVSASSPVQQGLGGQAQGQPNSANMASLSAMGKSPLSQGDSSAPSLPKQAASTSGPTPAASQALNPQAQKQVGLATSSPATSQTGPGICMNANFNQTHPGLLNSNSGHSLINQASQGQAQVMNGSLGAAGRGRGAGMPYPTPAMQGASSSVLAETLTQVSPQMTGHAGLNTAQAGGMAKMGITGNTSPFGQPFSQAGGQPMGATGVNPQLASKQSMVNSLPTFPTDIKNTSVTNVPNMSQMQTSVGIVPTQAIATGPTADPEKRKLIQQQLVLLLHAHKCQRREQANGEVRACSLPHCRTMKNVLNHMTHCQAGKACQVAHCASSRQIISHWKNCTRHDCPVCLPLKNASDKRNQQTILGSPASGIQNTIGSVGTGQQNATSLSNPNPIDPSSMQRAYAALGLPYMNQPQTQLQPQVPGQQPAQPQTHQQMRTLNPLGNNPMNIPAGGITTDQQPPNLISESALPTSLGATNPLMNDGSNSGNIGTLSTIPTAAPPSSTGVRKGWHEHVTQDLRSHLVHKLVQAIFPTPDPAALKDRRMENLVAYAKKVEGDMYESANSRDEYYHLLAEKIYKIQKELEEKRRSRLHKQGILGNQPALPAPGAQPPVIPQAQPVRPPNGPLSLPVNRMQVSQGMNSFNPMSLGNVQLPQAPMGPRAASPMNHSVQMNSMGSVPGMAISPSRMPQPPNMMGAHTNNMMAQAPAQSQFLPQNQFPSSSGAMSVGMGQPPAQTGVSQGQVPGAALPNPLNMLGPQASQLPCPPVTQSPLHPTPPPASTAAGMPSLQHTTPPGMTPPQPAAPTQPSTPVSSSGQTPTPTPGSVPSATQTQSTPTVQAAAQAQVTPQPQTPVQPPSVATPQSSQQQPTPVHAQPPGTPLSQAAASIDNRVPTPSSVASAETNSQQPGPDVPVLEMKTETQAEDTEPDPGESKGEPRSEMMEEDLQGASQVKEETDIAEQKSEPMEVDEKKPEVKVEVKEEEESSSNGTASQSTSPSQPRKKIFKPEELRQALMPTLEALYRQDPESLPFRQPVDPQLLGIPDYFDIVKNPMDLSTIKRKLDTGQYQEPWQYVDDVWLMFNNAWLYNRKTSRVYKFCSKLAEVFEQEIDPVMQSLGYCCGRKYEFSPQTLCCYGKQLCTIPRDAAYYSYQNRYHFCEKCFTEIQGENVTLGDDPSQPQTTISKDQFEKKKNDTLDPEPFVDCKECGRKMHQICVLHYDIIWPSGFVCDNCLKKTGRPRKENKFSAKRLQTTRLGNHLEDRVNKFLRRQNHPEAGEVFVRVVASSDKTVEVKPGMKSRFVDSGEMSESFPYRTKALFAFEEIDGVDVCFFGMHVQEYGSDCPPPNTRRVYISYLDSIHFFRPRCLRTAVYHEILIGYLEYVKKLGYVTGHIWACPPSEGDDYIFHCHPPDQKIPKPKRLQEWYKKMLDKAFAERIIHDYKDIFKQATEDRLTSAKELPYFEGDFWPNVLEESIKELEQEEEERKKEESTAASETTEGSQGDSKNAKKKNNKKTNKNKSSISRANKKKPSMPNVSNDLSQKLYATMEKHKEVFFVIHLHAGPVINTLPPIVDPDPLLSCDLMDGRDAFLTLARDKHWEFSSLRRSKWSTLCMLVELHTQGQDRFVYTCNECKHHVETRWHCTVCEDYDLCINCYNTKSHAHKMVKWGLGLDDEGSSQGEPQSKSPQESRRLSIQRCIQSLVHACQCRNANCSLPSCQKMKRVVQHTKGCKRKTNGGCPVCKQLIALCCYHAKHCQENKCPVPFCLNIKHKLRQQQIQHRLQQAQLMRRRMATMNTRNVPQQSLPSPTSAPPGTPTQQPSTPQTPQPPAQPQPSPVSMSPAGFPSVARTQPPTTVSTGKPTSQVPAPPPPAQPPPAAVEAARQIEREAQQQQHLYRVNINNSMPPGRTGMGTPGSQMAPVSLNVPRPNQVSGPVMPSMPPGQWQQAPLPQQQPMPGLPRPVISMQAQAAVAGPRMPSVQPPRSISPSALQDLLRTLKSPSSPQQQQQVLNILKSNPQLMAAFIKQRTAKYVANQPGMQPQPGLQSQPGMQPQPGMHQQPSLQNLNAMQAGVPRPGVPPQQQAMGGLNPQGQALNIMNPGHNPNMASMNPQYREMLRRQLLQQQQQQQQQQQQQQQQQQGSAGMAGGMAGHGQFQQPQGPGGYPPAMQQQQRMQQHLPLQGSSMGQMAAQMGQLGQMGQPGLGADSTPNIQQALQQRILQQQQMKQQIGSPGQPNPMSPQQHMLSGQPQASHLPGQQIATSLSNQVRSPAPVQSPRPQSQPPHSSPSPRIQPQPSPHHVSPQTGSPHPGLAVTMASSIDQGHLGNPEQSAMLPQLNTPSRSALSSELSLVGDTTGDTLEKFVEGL

SMILES | pEC50 [1] | chromatographic logD [2] | other results
COc1ccc(NC(=O)[C@H]2CCCN2C(=O)C2(c3ccc(Cl)cc3)CCC2)cc1 | 5.7 |  | 
CNC(=O)c1cccc(NC(=O)[C@H]2CCCN2C(=O)C2(c3cccc(Cl)c3)CCCC2)c1 | < 4.3 | 5.5 | 
O=C(Nc1ccc(O)cc1)[C@H]1CCCN1C(=O)C1(c2cccc(Cl)c2)CCCC1 | 6.6 | 5.5 | 
COc1ccc(NC(=O)[C@H]2CCCN2C(=O)C2(c3ccc(Cl)cc3)CCCCC2)cc1 | 5.3 |  | 
COc1ccc(NC(=O)[C@H]2CCCN2C(=O)C2(c3ccc(Cl)cc3)CCCC2)cc1 | 5.7 |  | 
COc1ccc(C2(C(=O)N3CCC[C@@H]3C(=O)Nc3ccc4[nH]ncc4n3)CCC2)cc1 | 7.1 | 3.9 | 
O=C(Nc1cnc2[nH]ncc2c1)[C@H]1CCCN1C(=O)C1(c2cccc(Cl)c2)CCCC1 | 5.5 | 4.9 | 
O=C(Nc1ccc2[nH]ncc2n1)[C@H]1CCCN1C(=O)C1(c2ccc(F)cc2)CCC1 | 7 | 4.1 | 
O=C(Nc1ccc2[nH]ccc2n1)[C@H]1CCCN1C(=O)C1(c2cccc(Cl)c2)CCCC1 | 7.3 | 5.9 | 
COc1ccc(NC(=O)[C@H]2CCCN2C(=O)C2(c3cccc(Cl)c3)CCCC2)cc1 | 4.7 |  | 
COc1ccc(NC(=O)[C@H]2CCCN2C(=O)C2(c3cccc(Cl)c3)CCCC2)nc1 | 6.3 | 6.8 | 
O=C(Nc1ccc2[nH]ncc2n1)[C@H]1C[C@@H](F)CN1C(=O)C1(c2ccc(Cl)cc2)CCC1 | 8.2 | 4.3 | Cmax [3]: 77 ng/mL; AUC(0-inf) [4]: 50 ng·h/mL; clearance [5]: 134 mL/min/kg; Vd [6]: 2.8 L/kg; half-life [7]: 21 min; MRT [8]: 21.6 min
O=C(Nc1ccc2[nH]ncc2n1)[C@H]1CCCN1C(=O)C1(c2ccc(Cl)cc2)CC(F)(F)C1 | 7.8 | 4.7 | Cmax [9]: 89 ng/mL; AUC(0-inf) [10]: 70 ng·h/mL; clearance [11]: 150 mL/min/kg; Vd [12]: 4.3 L/kg; half-life [13]: 34.8 min; MRT [14]: 30 min
CNC(=O)c1ccc(NC(=O)[C@H]2CCCN2C(=O)C2(c3cccc(Cl)c3)CCCC2)cc1 | 6.5 | 5.3 | 
COc1ccc(NC(=O)[C@H]2CCCCN2C(=O)C2(c3ccc(Cl)cc3)CCCC2)cc1 | 5.3 |  | 
O=C(Nc1ccc2[nH]ncc2n1)[C@H]1CCCN1C(=O)C1(c2ccc(Cl)cc2)CCC1 | 7.4 | 4.7 | 
O=C(Nc1ccc2[nH]c(=O)[nH]c2c1)[C@H]1CCCN1C(=O)C1(c2cccc(Cl)c2)CCCC1 | 6.5 | 4.4 | 
COc1ccc(NC(=O)[C@H]2CCCN2C(=O)C2(c3ccccc3)CCCC2)cc1 | 5.3 |  | 

Further lines, with some results ahead:

pEC50 [1] | chromatographic logD [2] | SMILES | other results
5.4 | 5.2 | O=C(Nc1ccc2[nH]nnc2c1)[C@H]1CCCN1C(=O)C1(c2cccc(Cl)c2)CCCC1 | 
7.9 |  | O=C(Nc1ccc2[nH]ncc2n1)[C@H]1CCCN1C(=O)C1(c2cccc(Cl)c2)CCCC1 | 
7.3 | 3.4 | N#Cc1ccc(C2(C(=O)N3CCC[C@@H]3C(=O)Nc3ccc4[nH]ncc4n3)CCC2)cc1 | Cmax [3]: 64 ng/mL; AUC(0-inf) [4]: 59 ng·h/mL; clearance [5]: 150 mL/min/kg; Vd [6]: 2.7 L/kg; half-life [7]: 19.8 min; MRT [8]: 18 min
5.1 |  | COc1ccc(NC(=O)[C@H]2CCCN2C(=O)C(C)(C)c2ccc(Cl)cc2)cc1 | 
5.3 |  | COc1ccc(NC(=O)[C@H]2CCN2C(=O)C2(c3ccc(Cl)cc3)CCCC2)cc1 | 
6.3 | 5 | O=C1Cc2cc(NC(=O)[C@H]3CCCN3C(=O)C3(c4cccc(Cl)c4)CCCC3)ccc2N1 | 
6.7 | 5.4 | O=C(Nc1ccc2[nH]ncc2c1)[C@H]1CCCN1C(=O)C1(c2cccc(Cl)c2)CCCC1 | 
8.1 | 4.5 | O=C(Nc1ccc2[nH]ncc2n1)[C@H]1COCCN1C(=O)C1(c2ccc(Cl)cc2)CC(F)(F)C1 | half-life [15]: 35.4 min
8.5 | 4.4 | O=C(Nc1ccc2[nH]ncc2n1)[C@H]1C[C@@H](F)CN1C(=O)C1(c2ccc(Cl)cc2)CC(F)(F)C1 | remaining at 4 h, 1 µM [16]: > 98%; Cmax [17]: 210 ng/mL; AUC(0-inf) [18]: 102 ng·h/mL; clearance [19]: 95 mL/min/kg; Vd [20]: 2 L/kg; half-life [21]: 18 min; MRT [22]: 22.2 min; inhibition [23]: 97%; inhibition [24]: 80%; inhibition [25]: Active; inhibition [26]: Active

Activity calls are given as the source filed them. The rule behind the calls is not given here.
